Reference: PubChem BioAssay AID624202 (National Center for Advancing Translational Sciences (NCATS), 2012)
Among all 380,000 compounds or so, about 4,000 (1.1%) were called active. The shares of active, inactive and inconclusive entries below differ from those in the screen. The call rests on the fitted dose curve; in most records, active means well fitted activation curve with a large enough effect; inconclusive means small, poorly fitted or top-dose-only effect; inactive means no such curve, though single readings can be large or run the other way. Potencies of inconclusive entries are doubtful fits and often do not repeat.
Potency means the concentration at half of the fitted maximal effect; tags describe the fitted curve by direction and shape.

Experiment: qHTS Assay to Identify Small Molecule Activators of BRCA1 Expression; further: nearly all actives have a fitted effect of over 80% in size
Conditions: MCF7-BRCA1-FFLuc reporter, luminescence, 48 h; activation: at 46.1 µM (top of the series), scaled: vehicle 0%, 10 µM genistein 100% unless noted
Outline: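 MCF7 cells carrying a BRCA1-firefly luciferase reporter (2000 cells/well, phenol-red free MEM) were attached for 2 h at 37 °C, then given compounds for 48 h. Luminescence was read 15 min after luciferase reagent; activity normalized to genistein (10 microM) and DMSO.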
With `Cc1ccc(S(=O)(=O)N2[C@@H](c3ccc(Br)cc3)C(C(=O)O)=CC[C@H]2c2ccc(Cl)cc2)cc1` the Potency was “inactive”.
In the case of `CC(C)(C)c1ccc(C(=O)CS(=O)(=O)c2ccccc2)cc1`, the Potency was active: 3.98 µM.
With `Cc1sc(NC(=O)c2ccc3ncsc3c2)c(C(N)=O)c1C` the Potency was inconclusive: 1.58 µM [activator, partial curve, poor fit].
In the case of `CC(=O)C1=C(O)C(=O)N(c2ccc(Br)cc2)C1c1cccc(F)c1` (stereo unspecified), the Potency was “inactive”.
With `Cc1c(C(=O)NCCc2ccccc2)oc2ccccc12` the Potency was inconclusive: 0.891 µM [activator, full curve, poor fit].
With `CCN(CC)C(=S)SCC(=O)c1ccc(F)cc1` the Potency was active: 3.16 µM.
In the case of `O=C(CSc1ccc(F)cc1)NC12CC3CC(CC(C3)C1)C2`, the Potency was inconclusive: 31.6 µM [activator, single point].
In the case of `CC(=O)Nc1cccc(Oc2ccc(-c3noc(C)n3)cc2)c1`, the Potency was inconclusive: 2 µM [activator, partial curve, poor fit].
With `Cn1nnc(-c2ccc(OCc3ccccc3F)cc2)n1` the Potency was inconclusive: 1.12 µM [activator, full curve, poor fit].
In the case of `NC(=O)C1(N2CCCCC2)CCN(c2nc(-c3ccc(Br)cc3)cs2)CC1`, the Potency was “inactive”.
In the case of `COCc1nnc(NC(=O)c2sc3ccccc3c2Cl)s1`, the Potency was inconclusive: 10 µM [activator, partial curve, poor fit].
For `O=C(Nc1ccc2c(c1)OCO2)Nc1ccc(Br)cn1`, the Potency was active: 2.82 µM.
With `O=C(NC1CCCCCC1)c1ccc2c(=O)n3c(nc2c1)CCCCC3` the Potency was inconclusive: 3.16 µM [activator, partial curve, poor fit].
For `C[C@H](CO)N1C[C@H](C)[C@@H](CN(C)S(=O)(=O)c2ccc(F)cc2)Oc2c(NC(=O)Nc3ccc(C(F)(F)F)cc3)cccc2C1=O`, the Potency was “inactive”.
In the case of `c1ccc(-c2ccc(OCCOCCn3cncn3)cc2)cc1`, the Potency was active: 7.08 µM.
For `Fc1ccc(-n2nnc(-c3ccccc3)n2)cc1`, the Potency was “inactive”.
With `C/C(=N\Nc1ccc(Cl)c(C(=O)O)c1)c1cccs1` the Potency was active: 12.6 µM.
With `CCOC(=O)N1CCC(NCCNC(=O)c2ccc(F)cc2)CC1` the Potency was “inactive”.
With `CCOC(=O)C1(Cc2ccccc2Cl)CCN(C(=O)c2cc(C)on2)CC1` the Potency was inconclusive: 12.6 µM [activator, partial curve, poor fit].
In the case of `COc1cccc2sc(N(C)c3ccccc3)nc12`, the activation was inconclusive: 26.2% [activator].
With `CCc1cc(-c2[nH]ncc2-c2ccc(OC)cc2)c(O)cc1O` the Potency was “inactive”.
For `CCOC(=O)c1ccc2[nH]c(C)c(C)c2c1`, the Potency was active: 12.6 µM.
For `CCCCn1c(N)c(N(CCC(C)C)C(=O)C2CCN(C(=O)c3ccccc3C)CC2)c(=O)[nH]c1=O`, the Potency was “inactive”.
With `CCc1nnc(NC(=O)c2ccncc2)s1` the Potency was “inactive”.
With `CC1(C)CC(=O)C=C(c2ccc(COC(=O)c3ccccc3)cc2)C1=O` the Potency was inconclusive: 12.6 µM [activator, partial curve, poor fit].
With `COC(=O)c1ccn(Cc2ccccc2Cl)n1` the Potency was active: 12.6 µM.
For `COc1ccc(C(=O)Nc2ccc(N3CCCCC3)cc2)cc1Br`, the Potency was active: 3.55 µM.
For `CCSc1ccc(/C(N)=N/OC(=O)c2cccs2)cn1`, the Potency was active: 10 µM.
For `Cc1ccc(S(=O)(=O)NC(=O)C2(C)CCN2C(=O)C2CCCCC2)nc1` (stereo unspecified), the Potency was “inactive”.
In the case of `COc1cc(/C=N/N=C2/NC(=O)C(CC(=O)O)S2)ccc1OCc1cccc(Cl)c1` (stereo unspecified), the Potency was active: 11.2 µM.
In the case of `CCOc1ccc(N2C(=O)CC(N(O)c3ccccc3)C2=O)cc1` (stereo unspecified), the Potency was inconclusive: 12.6 µM [activator, partial curve, poor fit].
In the case of `Cc1ccc(NC(=O)N(CCCN2CCOCC2)Cc2cc3cc4c(cc3[nH]c2=O)OCO4)cc1`, the Potency was “inactive”.
With `Cc1cc(OCc2cc(C(=O)N3CCCCCC3)no2)cc(C)c1Cl` the Potency was inconclusive: 20 µM [activator, single point].
With `Cc1cccc(S(=O)(=O)Nc2ccc(-c3nc4ccc(C)cc4s3)cc2)c1` the Potency was inconclusive: 1.26 µM [activator, full curve, poor fit].
With `O=C(Nc1ccc2c(c1)OCCO2)c1ccc(Cl)c(Cl)c1` the Potency was active: 12.6 µM.
For `COc1ccc(C(=O)N=c2sc3ccccc3n2C)cc1OC`, the Potency was inconclusive: 2.51 µM [activator, partial curve, poor fit].
With `C(=N\Nc1ccccn1)/c1ccc(N2CCOCC2)cc1` the Potency was inconclusive: 7.08 µM [activator, partial curve, poor fit].
With `COc1cc(Cl)ccc1OCc1cc(C(=O)N(C)C2CCOC2)no1` (stereo unspecified) the Potency was active: 12.6 µM.
For `CN(C)c1ccc(/C=N/n2c(-c3ccccc3Br)n[nH]c2=S)cc1`, the Potency was “inactive”.
In the case of `Cc1ccc(C(=O)N2c3ccccc3CC2C)o1` (stereo unspecified), the Potency was active: 3.98 µM.
With `COc1ccc(N/C=C2\CCc3ccccc3C2=O)cc1` the activation was inconclusive: -16.9% [activator].
With `Cc1nc2ccccc2nc1N/N=C/c1ccc(O)cc1` the Potency was active: 7.94 µM.
With `Cc1ccc(S(=O)(=O)N2CCN(c3nc(-c4ccc(CN5CCOCC5)s4)nc4ccccc34)CC2)cc1` the Potency was “inactive”.
In the case of `Cn1cnc2c(SCc3ccccc3)ncnc21`, the Potency was inconclusive: 11.2 µM [activator, partial curve, poor fit].
With `O=C(Nc1ccccc1)Nc1ccc2ncoc2c1` the Potency was inconclusive: 8.91 µM [activator, partial curve, poor fit].
With `C/C(=N/OC(=O)CC(C)C)c1cc(-c2ccc(Cl)cc2)no1` the Potency was inconclusive: 1 µM [activator, full curve, poor fit].
In the case of `Cc1nc(NC(=O)c2cnccn2)ccc1Br`, the Potency was inconclusive: 10 µM [activator, single point].
For `COc1ccccc1CC(=O)Nc1nc(-c2ccc(F)c(F)c2)cs1`, the Potency was “inactive”.
With `CCc1nnc(NC(=O)c2ccc(-c3ccccc3F)o2)s1` the Potency was inconclusive: 12.6 µM [activator, partial curve, poor fit].
In the case of `Cc1c(Cl)cccc1NC(=O)c1cc(-c2ccco2)on1`, the Potency was “inactive”.
With `COc1ccc2nc(NC(=O)c3cccnc3SC)sc2c1` the Potency was inconclusive: 2 µM [activator, partial curve, poor fit].
For `CCOC(=O)[C@]12CCCC=C1N(Cc1ccco1)C(=O)[C@H](CC(=O)NCc1cccc(C(F)(F)F)c1)C2`, the Potency was “inactive”.
For `Cc1ccc(C)c(OCc2cc(C(=O)N3CC[C@H](O)C3)no2)c1`, the Potency was inconclusive: 11.2 µM [activator, partial curve, poor fit].
In the case of `O=C(NCc1ccc(Cl)cc1)c1ccc2c(c1)N(Cc1ccccc1F)C(=O)c1ccccc1S2=O` (stereo unspecified), the Potency was “inactive”.
With `Cn1c2c(c3cnc4cc(Cl)ccc4c31)CN(Cc1ccc(Cl)cc1)CC2` the Potency was “inactive”.
For `COc1cccc(C(=O)Nc2nnc(-c3ccccc3)s2)c1`, the Potency was inconclusive: 2.51 µM [activator, full curve, poor fit].
In the case of `CN(CCc1ccccn1)c1ccccc1`, the Potency was inconclusive: 12.6 µM [activator, partial curve, poor fit].
For `O=C(NC1CCCCC1)c1ccc(N2CCCC2=O)cc1`, the Potency was inconclusive: 14.1 µM [activator, single point].
For `COc1ccc(/C=N/N=C2/SCC(=O)N2Cc2ccccc2)cc1`, the Potency was active: 5.62 µM.
In the case of `CCN(CC)c1ccc2nc3c4ccccc4c(=O)cc-3oc2c1`, the Potency was active: 0.891 µM.
For `O=C(NC(=S)Nc1ccc(S(=O)(=O)N2CCCCCC2)cc1)c1cccs1`, the Potency was “inactive”.
With `S=C(NCCc1ccccc1)Nc1nccs1` the Potency was inconclusive: 8.91 µM [activator, partial curve, poor fit].
In the case of `Fc1ccc(C2=CC(c3ccc(Br)o3)n3ncnc3N2)cc1` (stereo unspecified), the Potency was “inactive”.
With `Cc1csc2nc(COC(=O)c3cccc(N(C)C)c3)cc(=O)n12` the Potency was inconclusive: 2.24 µM [activator, partial curve, poor fit].
In the case of `N#CC1=C(SCC(=O)Nc2ccccc2)NC(=O)CC1c1ccc(O)cc1` (stereo unspecified), the Potency was inconclusive: 14.1 µM [activator, partial curve, poor fit].
With `O=C(NCc1ccc2c(c1)OCO2)c1cc(-c2ccccc2Cl)on1` the Potency was inconclusive: 17.8 µM [activator, partial curve, poor fit].
In the case of `COCc1nc(-c2ccc(-c3ccccc3)nc2OC)no1`, the Potency was active: 10 µM.
In the case of `Cc1nnsc1Sc1ccccc1`, the Potency was “inactive”.
For `Cc1cccc(C(=O)Nc2sc(C)c(-c3ccccc3)c2C#N)c1`, the Potency was inconclusive: 1.58 µM [activator, partial curve, poor fit].
For `COc1ccc(NC(=O)NC2CCCCCCC2)cc1`, the Potency was inconclusive: 2.24 µM [activator, full curve, poor fit].
With `Cc1ccc(/C=N/NC(=O)c2ccoc2C)s1` the Potency was inconclusive: 6.31 µM [activator, partial curve, poor fit].
In the case of `COc1cccc(C(=O)Nc2ccc(-c3nnc(-c4ccco4)o3)cc2)c1`, the Potency was inconclusive: 3.98 µM [activator, partial curve, poor fit].
With `Nc1ccnc(Oc2ccc(F)cc2)c1` the Potency was inconclusive: 20 µM [activator, partial curve, poor fit].
In the case of `CN(C)/C=N/C(=S)Nc1ccc(Cl)cc1`, the Potency was inconclusive: 14.1 µM [activator, partial curve, poor fit].
With `O=C(/C=C/c1ccc(Cl)c([N+](=O)[O-])c1)Nc1ccc(NC(=O)c2ccco2)cc1` the Potency was “inactive”.
For `O=C(Cc1ccccc1)N1CCC(c2ccccc2)C1` (stereo unspecified), the Potency was inconclusive: 8.91 µM [activator, partial curve, poor fit].
